Measurements from PubChem BioAssay (Tox21).
Values joined by “and” are separate entries in the source; they are usually repeats but may differ in a detail not shown here. Identical values can stand only once. Inconclusive results, whose numbers are uncertain, are shown with a selection of clear calls. Potencies of inconclusive entries are doubtful fits and often do not repeat. Active and inactive are the calls of the source. Calls follow the shape of the dose curve; as a rule, active = well fitted inhibition curve with a large enough effect in the repeat runs; inconclusive = weak or mixed curves; inactive = no such curve, though single readings can be large or run the other way.

biological target: Cytochrome P450 2C19 (Homo sapiens) (UniProt P33261); assay: Cytochrome P450 Family 2 Subfamily C Member 19 (CYP2C19) small molecule antagonists: luciferase reporter qHTS assay (AID 1671197); conditions: P450-Glo CYP2C19 enzyme, luciferin luminescence, 1 h; series mostly up to 115 µM; activity change, negative = inhibition: at the top concentration; also: nearly all actives have a fitted effect of over 65% in size
Procedure, shortened: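 P450-Glo CYP2C19 screening system; proluciferin substrate; DMSO compound stocks; 10 min RT preincubation; NADPH regeneration, 1 h at 37C; luciferin detection reagent, 20 min RT; luminescence as RLU.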
% is scaled to controls: 0 for no effect and ±100 for the full control effect; potency is read from the fitted curve at half-maximal effect; tags tell the direction and shape of the fitted curve.

Chain of UniProt P33261 (P33261 whole entry, looked up): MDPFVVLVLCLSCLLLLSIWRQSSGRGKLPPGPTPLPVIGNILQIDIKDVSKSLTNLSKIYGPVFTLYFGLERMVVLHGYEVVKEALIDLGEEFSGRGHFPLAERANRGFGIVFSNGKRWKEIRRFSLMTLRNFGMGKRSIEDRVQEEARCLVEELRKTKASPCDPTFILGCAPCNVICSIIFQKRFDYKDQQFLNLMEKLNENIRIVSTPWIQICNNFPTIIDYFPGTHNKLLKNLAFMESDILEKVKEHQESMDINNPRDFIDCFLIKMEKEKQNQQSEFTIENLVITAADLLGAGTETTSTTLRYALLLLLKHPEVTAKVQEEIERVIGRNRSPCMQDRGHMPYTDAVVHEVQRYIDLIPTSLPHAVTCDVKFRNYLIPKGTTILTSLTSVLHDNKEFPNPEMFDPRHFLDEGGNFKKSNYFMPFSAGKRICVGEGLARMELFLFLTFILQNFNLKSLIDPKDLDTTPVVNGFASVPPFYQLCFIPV

**Q.** Which Potency does the source give for CN(C)N=O here?
**A.** inconclusive: 88.9 µM [inhibitor, single point]

**Q.** Oc1ccccc1-c1ccccc1 was tested. Which Potency did it give?
**A.** inconclusive: 15.5 µM [inhibitor, single point]

**Q.** For C[C@]12CCC(=O)C(O)=C1CC[C@@H]1[C@@H]2CC[C@]2(C)C(=O)CC[C@@H]12, which Potency is on record?
**A.** inconclusive: 17.4 µM [inhibitor, partial curve, poor fit]

**Q.** How did the Potency turn out when Nc1cc(Cl)cc(C(=O)O)c1Cl was run?
**A.** inconclusive: 88.6 µM [inhibitor, single point]

**Q.** NC(=O)C(Cl)(Cl)Cl was tested. Which “activity change, negative = inhibition” value did it give?
**A.** inactive: 24.2%

**Q.** For O=C(CBr)c1ccc(O)cc1, which Potency is on record?
**A.** inconclusive: 89.4 µM [inhibitor, single point]

**Q.** For COP(=S)(OC)Oc1cc(Cl)c(Cl)cc1Cl, which Potency is on record?
**A.** active: 19.9 µM and active: 7.76 µM

**Q.** With O=[N+]([O-])c1ccccc1CCl as the compound, how does the Potency read?
**A.** inconclusive: 36 µM [inhibitor, single point]

**Q.** How did the Potency turn out when C#CCN1C(=O)COc2cc(F)c(N3C(=O)C4=C(CCCC4)C3=O)cc21 was run?
**A.** inconclusive: 89.4 µM [inhibitor, single point]

**Q.** CCOP(=O)(OCC)SCCSCC was tested. Which Potency did it give?
**A.** active: 21.4 µM and active: 35.6 µM

**Q.** With c1cncc([C@@H]2CCCCN2)c1 as the compound, how does the Potency read?
**A.** active: 39.9 µM

**Q.** For C#CC(C)(C)NC(=O)c1cc(Cl)cc(Cl)c1, which Potency is on record?
**A.** active: 8.04 µM and active: 39.9 µM

**Q.** How did the Potency turn out when Nc1ccc(-c2ccc(N)cc2)cc1 was run?
**A.** active: 8.83 µM and active: 39.6 µM and active: 35.6 µM

**Q.** Which “activity change, negative = inhibition” value does the source give for CC(C)(O)C(Cl)(Cl)Cl here?
**A.** inactive: -0.893% [at 52.9 µM]
